# PubChem BioAssay AID1508623 (National Center for Advancing Translational Sciences (NCATS), 2021)
# Among all 48,000 compounds or so, about 450 (0.94%) were called active. Roughly 19% stayed inconclusive and do not appear here. The call rests on the fitted dose curve; in most records, active means well fitted inhibition curve with a large enough effect; inconclusive means small, poorly fitted or top-dose-only effect; inactive means no such curve, though single readings can be large or run the other way. This is one part of the list.
# Test: Primary qHTS for Identification of Small Molecule Inhibitors of Huntingtin Promoter Activity; further: nearly all actives have a fitted effect of over 50% in size
# Settings: HEK293 HTT promoter firefly luciferase reporter (activity 0% = vehicle and -100% = no light), 24 h; series mostly up to 57.5 µM; activity change, negative = inhibition: at the top concentration
# Method in brief: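 HEK293 cells carrying firefly luciferase reporters were seeded at 2,500 per well in Opti-MEM and cultured for 24 h. They were then treated with compounds at up to 57.5 uM final for 24 h at 37 degrees C before Dual-Glo luminescence readout.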
# Potency means the concentration at half of the fitted maximal effect.
SMILES,"activity change, negative = inhibition",Potency
CCN(C(=O)Cn1ncc2c(=O)oc3ccc(C)cc3c21)c1cc(OC)ccc1OC,inactive: 0.526%,
CC1CCc2noc(NC(=O)c3ccccc3[N+](=O)[O-])c2C1 (stereo unspecified),inactive: -25.3%,
CCOC(=O)C1CCCN(S(=O)(=O)c2ccc(N3CCCCS3(=O)=O)cc2)C1 (stereo unspecified),inactive: -31.7%,
Cc1cc(C(F)F)n2nc(C(=O)Nc3cc(Cl)ccc3C)nc2n1,inactive: -6.1%,
CN1CCN(C(=O)c2ccc3c(c2)N(Cc2cccc(Cl)c2)C(=O)c2ccccc2S3(=O)=O)CC1,inactive: -25.8%,
COc1ccccc1CNC(=O)C1CCN(S(=O)(=O)c2c(C)noc2/C=C/c2c(C)cc(C)cc2C)CC1,inactive: -25.6%,
COc1cc(O)c2c(c1)C(=O)c1cc(C)cc(O)c1C2=O,inactive: 5.41% [at 25.2 µM],
COc1cccc(CNC(=O)CSc2ncc3c(n2)-c2cc(Cl)ccc2N(C)S3(=O)=O)c1,inactive: -7.89%,
Cc1coc2c(C)c3oc(=O)c(CC(=O)NCc4ccccc4)c(C)c3cc12,inactive: -11.2%,
Cc1c(Cl)cccc1NC(=O)CN1C(=O)COc2ccc(S(=O)(=O)N3CCCCCC3)cc21,inactive: -7.32%,
Cc1ccc(Cl)cc1-n1c(=O)c2sc3ccccc3c2n(CC(=O)NC2CCCCC2)c1=O,inactive: -15.4%,
Cc1cccc(C)c1NC(=O)c1nc(S(C)(=O)=O)ncc1N(Cc1ccc(F)cc1)Cc1ccco1,inactive: -36.5%,
CCOC(=O)c1cnc2c(C)cc(C)cc2c1NCCc1ccc(OC)c(OC)c1,inactive: -3.84%,
Cc1ccc2c(CC(=O)NCc3ccccc3)coc2c1C,inactive: -13.8%,
O=c1c2sc3ccccc3c2n(Cc2ccccc2Cl)c(=O)n1Cc1ccccc1,inactive: -5.36%,
COc1ccc(NC(=O)CCCn2c(=O)c3cccn3c3ccccc32)c(OC)c1,inactive: 22.4%,
O=C(NCCc1csc(-c2ccc(C(F)(F)F)cc2)n1)C(=O)Nc1cc(F)ccc1F,inactive: 5.8%,
CCCCN(C)CCNC(=O)C1CCCN(S(=O)(=O)c2ccc3c(c2)oc(=O)n3C)C1 (stereo unspecified),inactive: -9.21%,
CCOC(=O)c1c(C)[nH]c(CCC(=O)NCCCN2CCN(c3cc(Cl)ccc3C)CC2)c1C,inactive: -29.6%,
CCc1ccccc1NC(=O)Cn1c(=O)n(CCCS(=O)(=O)C2CCCCC2)c(=O)c2ccccc21,inactive: -18.2%,
CCOc1ccc(C(=O)Nc2cccc(OCc3cc(=O)n4ccccc4n3)c2)cc1,inactive: 12.7%,

SMILES,"activity change, negative = inhibition",Potency
Cc1ccccc1NS(=O)(=O)c1nnc(NC(=O)c2ccc(Cl)cc2)s1,inactive: -5.61%,
CCOC(=O)c1[nH]c(C)c(CCC(=O)Nc2ccc(C(C)=O)cc2)c1C,inactive: -0.906%,
Cc1cccc(CNS(=O)(=O)c2csc(C(N)=O)c2)c1,inactive: -39.9%,
O=C1C(c2cccc(Br)c2)N(CCc2ccccc2)C(=O)CN1C1CCCCC1 (stereo unspecified),inactive: -10.8%,
CCOc1cccc(CNCCNC(=O)c2nonc2N)c1,inactive: 29.6%,
COc1ccc(-c2cc(C(F)(F)F)nc(SCCC(=O)Nc3ccc(OC)c(OC)c3)n2)cc1,inactive: -29.2%,
CCN1CCC(N(Cc2ccc3c(c2)OCO3)C(=O)Nc2cc(F)ccc2F)CC1,inactive: -9.12%,
Cc1ccc(NC(=O)c2sc3nc(-c4cccs4)ccc3c2N)cc1F,inactive: 3.64%,
CC(C)(C)NC(=O)C1CCN(c2nc3ccccc3nc2C(F)(F)F)CC1,inactive: -7.4%,
COc1ccc(CNC(=O)CN2C(=O)CC(c3ccc(C)c(C)c3)=Nc3ccccc32)cc1,inactive: 59.9%,
O=c1[nH]c2cc(Br)ccc2n2cccc12,inactive: 4.6%,
O=C(O)c1ccccc1Nc1cc(Cl)ccc1C(=O)O,inactive: -4.46% [at 25.2 µM],
CCOc1ccc(CNC(=O)CSc2nnc(C)c3c(C)n(-c4ccc(Cl)cc4)nc23)cc1,inactive: -4.75%,
O=C(CN1C(=O)COc2ccc(S(=O)(=O)NC3CCCC3)cc21)NCc1ccc(Cl)cc1,inactive: -14.9%,
CCN(CC)CCSc1c(C(C)C)cnc2c1c(=O)n(C)c(=O)n2C,inactive: -0.493%,
CN1CCN(C(=O)C(=O)Nc2c3c(nn2-c2ccc(Cl)cc2)CSC3)CC1,inactive: -12.8%,
Cc1nn2c(=O)cc(COC(=O)c3cccc(NC(=O)COc4ccccc4C)c3)nc2s1,,active: 3.16 µM
CCOCCCn1c(=N)c(C(=O)NCc2cccnc2)cc2c(=O)n3ccccc3nc21,inactive: 0.756%,
Cc1ccc(N2C(=O)CCSC23C(=O)N(Cc2ccccc2)c2ccccc23)cc1 (stereo unspecified),inactive: 0.597%,
Cn1c(=O)c(C(=O)O)nn(-c2ccccc2)c1=O,inactive: -1.55%,
Cc1ccc(NC(=O)Nc2nnc(N3CCCC3)s2)cc1C,inactive: -8.71%,

SMILES,"activity change, negative = inhibition",Potency
COC(=O)c1ccc(C(=O)OC)c(NC(=O)CN(c2ccccc2)S(=O)(=O)N(C)C)c1,inactive: -29%,
COc1cccc(CNC(=O)CSC2=Nc3ccccc3N=C(c3ccc(F)cc3)C2)c1,inactive: -30.4%,
Cn1nnnc1SCCCNCc1ccccc1OCc1ccc(Cl)cc1,inactive: -38.3%,
NS(=O)(=O)c1cc2c(cc1Cl)NC(CSCc1ccccc1)=NS2(=O)=O,inactive: 3.13%,
CCOC(=O)C1CCN(C(=O)Cn2nc(CC)n3c(cc4sccc43)c2=O)CC1,,active: 2.82 µM
Cc1cc(C)c(NC(=O)Cn2c(=O)n(CCC(=O)N3CCc4ccccc4C3)c(=O)c3ccccc32)c(C)c1,inactive: -14.2%,
Cc1c(CNC2CCCCC2)c(C(=O)O)c(C)n1Cc1ccc(Cl)cc1,inactive: 1.07%,
Cc1ccc(Cn2c3ccccc3c3cnn(CC(=O)Nc4cc(Cl)ccc4C)c(=O)c32)cc1,inactive: -16.2%,
COc1ccc(N2CCN(C(=O)c3cccn3-c3nnc(N4CCCC4)s3)CC2)cc1,inactive: -3.67%,
O=C(CSc1n[nH]c(-c2ccccc2Cl)n1)NCCc1ccccc1,inactive: -7.7%,
CCc1nn(CCCC(=O)NCc2ccc(OC(C)C)cc2)c(=O)c2cc3occc3n12,inactive: -20.4%,
CCOc1cc(CNS(=O)(=O)c2ccc3c(c2)C(C)(C)C(=O)N3)cc(OCC)c1OCC,inactive: 2.02%,
CC(NC(=O)Cn1ccc2cc(S(=O)(=O)N3CCCCCC3)ccc21)c1ccccc1 (stereo unspecified),inactive: -20.6%,
COc1ccc(C)cc1NC(=O)Nc1nnc(N2CCCCC2)s1,inactive: 4.39%,
CCOC(=O)C1CCCN(c2nc3c(S(=O)(=O)c4ccc(CC)cc4)nnn3c3ccc(Cl)cc23)C1 (stereo unspecified),inactive: 13%,
CCOC(=O)c1c(C)[nH]c(CCC(=O)Nc2ccccc2C(F)(F)F)c1C,inactive: -16.8%,
COc1ccc(C(=O)Nc2ccc(S(=O)(=O)Nc3cc(C)nc(C)n3)cc2)cc1,inactive: 5.56%,
O=C(CCS(=O)(=O)c1cc2c(cc1Cl)NC(=O)CO2)NCCc1ccccc1,inactive: -5.31%,
CCCS(=O)(=O)N1CC(=O)N(c2cccc(F)c2)C(C)(C(=O)NC2CCCCCC2)C1 (stereo unspecified),inactive: 0.626%,
